# Reference: the supplement of paper PMC8728848
# This is one part of the list.
# B1: GSL-I-B4 (Griffonia simplicifolia) (protein)
# chain: NFWSDVEDSIIFQGDANTTAGTLQLCKTNQYGTPLQWSAGRALYSDPVQLWDNKTESVASFYTEFTFFLKITGNGPADGLAFFLAPPDSDVKDAGEYLGLFNKSTATQPSKNQVVAVEFDTWTNPNFPEPSYRHIGINVNSIVSVATKRWEDSDIFSGKIATARISYDGSAEILTVVLSYPDGSDYILSHSVDMRQNLPESVRVGISASTGNNQFLTVYILSWRFSSNLQSTSVKAAMEPEITRTVV
# Experiments:
# Assay in all cases: glycan array binding signal (z-score within array); higher = stronger binding
# Conditions in all cases: glycan notation: IUPAC condensed, linker removed
# GlcNAc(b1-3)Gal(b1-4)Glc = biological target: GlcNAc(b1-3)Gal(b1-4)Glc
# Method in brief: (§1)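 The binding signal is a Z-score computed within each array and averaged over linkers. Arrays of the same protein sequence at different concentrations or buffers were also averaged together. Data originate from 3228 arrays in the Consortium for Functional Glycomics database, kept only where the protein sequence was available.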
# [1] = biological target: GlcNAc(b1-3)Gal(b1-4)GlcNAc
# Method in brief: as §1
# [2] = biological target: GlcNAc(b1-3)Gal(b1-4)GlcNAc(b1-2)Man(a1-3)[GlcNAc(b1-3)Gal(b1-4)GlcNAc(b1-2)Man(a1-6)]Man(b1-4)GlcNAc(b1-4)GlcNAc
# Method in brief: as §1
# [3] = biological target: GlcNAc(b1-3)Gal(b1-4)GlcNAc(b1-2)Man(a1-3)[GlcNAc(b1-3)Gal(b1-4)GlcNAc(b1-2)Man(a1-6)]Man(b1-4)GlcNAc(b1-4)[Fuc(a1-6)]GlcNAc
# Method in brief: as §1
# [4] = biological target: GlcNAc(b1-3)Gal(b1-4)GlcNAc(b1-2)[GlcNAc(b1-3)Gal(b1-4)GlcNAc(b1-6)]Man(a1-6)[GlcNAc(b1-3)Gal(b1-4)GlcNAc(b1-2)Man(a1-3)]Man(b1-4)GlcNAc(b1-4)GlcNAc
# Method in brief: as §1
# [5] = biological target: GlcNAc(b1-3)Gal(b1-4)GlcNAc(b1-3)Gal(b1-4)GlcNAc
# Method in brief: as §1
# [6] = biological target: GlcNAc(b1-3)Gal(b1-4)GlcNAc(b1-3)Gal(b1-4)GlcNAc(b1-2)Man(a1-3)[GlcNAc(b1-3)Gal(b1-4)GlcNAc(b1-3)Gal(b1-4)GlcNAc(b1-2)Man(a1-6)]Man(b1-4)GlcNAc(b1-4)GlcNAc
# Method in brief: as §1
# [7] = biological target: GlcNAc(b1-3)Gal(b1-4)GlcNAc(b1-3)Gal(b1-4)GlcNAc(b1-2)Man(a1-3)[GlcNAc(b1-3)Gal(b1-4)GlcNAc(b1-3)Gal(b1-4)GlcNAc(b1-2)Man(a1-6)]Man(b1-4)GlcNAc(b1-4)[Fuc(a1-6)]GlcNAc
# Method in brief: as §1
# [8] = biological target: GlcNAc(b1-3)Gal(b1-4)GlcNAc(b1-3)Gal(b1-4)GlcNAc(b1-2)[GlcNAc(b1-3)Gal(b1-4)GlcNAc(b1-3)Gal(b1-4)GlcNAc(b1-6)]Man(a1-6)[GlcNAc(b1-3)Gal(b1-4)GlcNAc(b1-3)Gal(b1-4)GlcNAc(b1-2)Man(a1-3)]Man(b1-4)GlcNAc(b1-4)[Fuc(a1-6)]GlcNAc
# Method in brief: as §1
# [9] = biological target: GlcNAc(b1-3)Gal(b1-4)GlcNAc(b1-3)Gal(b1-4)GlcNAc(b1-3)Gal(b1-4)GlcNAc(b1-2)Man(a1-3)[GlcNAc(b1-3)Gal(b1-4)GlcNAc(b1-3)Gal(b1-4)GlcNAc(b1-3)Gal(b1-4)GlcNAc(b1-2)Man(a1-6)]Man(b1-4)GlcNAc(b1-4)GlcNAc
# Method in brief: as §1
# [10] = biological target: GlcNAc(b1-3)Gal(b1-4)GlcNAc(b1-3)Gal(b1-4)GlcNAc(b1-3)Gal(b1-4)GlcNAc(b1-2)Man(a1-3)[GlcNAc(b1-3)Gal(b1-4)GlcNAc(b1-3)Gal(b1-4)GlcNAc(b1-3)Gal(b1-4)GlcNAc(b1-2)Man(a1-6)]Man(b1-4)GlcNAc(b1-4)[Fuc(a1-6)]GlcNAc
# Method in brief: as §1
# [11] = biological target: GlcNAc(b1-3)Gal(b1-4)GlcNAc(b1-3)Gal(b1-4)GlcNAc(b1-3)Gal(b1-4)GlcNAc(b1-2)[GlcNAc(b1-3)Gal(b1-4)GlcNAc(b1-3)Gal(b1-4)GlcNAc(b1-3)Gal(b1-4)GlcNAc(b1-6)]Man(a1-6)[GlcNAc(b1-3)Gal(b1-4)GlcNAc(b1-3)Gal(b1-4)GlcNAc(b1-3)Gal(b1-4)GlcNAc(b1-2)Man(a1-3)]Man(b1-4)GlcNAc(b1-4)[Fuc(a1-6)]GlcNAc
# Method in brief: as §1
# [12] = biological target: GlcNAc(b1-3)Gal(b1-4)GlcNAc(b1-3)Gal(b1-4)GlcNAc(b1-3)Gal(b1-4)GlcNAc(b1-3)Gal(b1-4)GlcNAc(b1-2)Man(a1-3)[GlcNAc(b1-3)Gal(b1-4)GlcNAc(b1-3)Gal(b1-4)GlcNAc(b1-3)Gal(b1-4)GlcNAc(b1-3)Gal(b1-4)GlcNAc(b1-2)Man(a1-6)]Man(b1-4)GlcNAc(b1-4)GlcNAc
# Method in brief: as §1
# [13] = biological target: GlcNAc(b1-3)Gal(b1-4)GlcNAc(b1-3)Gal(b1-4)GlcNAc(b1-3)Gal(b1-4)GlcNAc(b1-3)Gal(b1-4)GlcNAc(b1-2)Man(a1-3)[GlcNAc(b1-3)Gal(b1-4)GlcNAc(b1-3)Gal(b1-4)GlcNAc(b1-3)Gal(b1-4)GlcNAc(b1-3)Gal(b1-4)GlcNAc(b1-2)Man(a1-6)]Man(b1-4)GlcNAc(b1-4)[Fuc(a1-6)]GlcNAc
# Method in brief: as §1
# [14] = biological target: GlcNAc(b1-3)Gal(b1-4)GlcNAc(b1-3)Gal(b1-4)GlcNAc(b1-3)Gal(b1-4)GlcNAc(b1-3)Gal(b1-4)GlcNAc(b1-2)[GlcNAc(b1-3)Gal(b1-4)GlcNAc(b1-3)Gal(b1-4)GlcNAc(b1-3)Gal(b1-4)GlcNAc(b1-3)Gal(b1-4)GlcNAc(b1-6)]Man(a1-6)[GlcNAc(b1-3)Gal(b1-4)GlcNAc(b1-3)Gal(b1-4)GlcNAc(b1-3)Gal(b1-4)GlcNAc(b1-3)Gal(b1-4)GlcNAc(b1-2)Man(a1-3)]Man(b1-4)GlcNAc(b1-4)[Fuc(a1-6)]GlcNAc
# Method in brief: as §1
# [15] = biological target: GlcNAc(b1-3)Gal(b1-4)GlcNAc(b1-3)Gal(b1-4)GlcNAc(b1-3)GalNAc
# Method in brief: as §1
# [16] = biological target: GlcNAc(b1-3)Gal(b1-4)GlcNAc(b1-3)GalNAc
# Method in brief: as §1
# [17] = biological target: GlcNAc(b1-3)Gal(b1-4)GlcNAc(b1-3)[GlcNAc(b1-3)Gal(b1-4)GlcNAc(b1-3)]GalNAc
# Method in brief: as §1
# [18] = biological target: GlcNAc(b1-3)Gal(b1-4)GlcNAc(b1-6)[Gal(b1-3)]GalNAc
# Method in brief: as §1
# [19] = biological target: GlcNAc(b1-3)Gal(b1-4)GlcNAc(b1-6)[GlcNAc(b1-3)Gal(b1-3)]GalNAc
# Method in brief: as §1
# [20] = biological target: GlcNAc(b1-3)Gal(b1-4)GlcNAc(b1-6)[GlcNAc(b1-3)]Gal(b1-4)GlcNAc
# Method in brief: as §1
# GlcNAc(b1-3)GalNAc = biological target: GlcNAc(b1-3)GalNAc
# Method in brief: as §1
# GlcNAc(b1-3)Man = biological target: GlcNAc(b1-3)Man
# Method in brief: as §1
# [21] = biological target: GlcNAc(b1-3)[GlcNAc(b1-4)][GlcNAc(b1-6)]GlcNAc
# Method in brief: as §1
# [22] = biological target: GlcNAc(b1-3)[GlcNAc(b1-6)]Gal(b1-4)GlcNAc
# Method in brief: as §1
# [23] = biological target: GlcNAc(b1-3)[GlcNAc(b1-6)]GalNAc
# Method in brief: as §1
# [24] = biological target: GlcNAc(b1-4)Gal(b1-4)GlcNAc
# Method in brief: as §1
# GlcNAc(b1-4)GlcNAc = biological target: GlcNAc(b1-4)GlcNAc
# Method in brief: as §1
# [25] = biological target: GlcNAc(b1-4)GlcNAc(b1-4)GlcNAc
# Method in brief: as §1
# [26] = biological target: GlcNAc(b1-4)GlcNAc(b1-4)GlcNAc(b1-4)GlcNAc(b1-4)GlcNAc
# Method in brief: as §1
# [27] = biological target: GlcNAc(b1-4)GlcNAc(b1-4)GlcNAc(b1-4)GlcNAc(b1-4)GlcNAc(b1-4)GlcNAc
# Method in brief: as §1
# [28] = biological target: GlcNAc(b1-4)[GlcNAc(b1-6)]GalNAc
# Method in brief: as §1
# [29] = biological target: GlcNAc(b1-6)Gal(b1-4)GlcNAc
# Method in brief: as §1
# GlcNAc(b1-6)GalNAc = biological target: GlcNAc(b1-6)GalNAc
# Method in brief: as §1
# [30] = biological target: GlcNAc6S(b1-3)Gal(b1-4)GlcNAc
# Method in brief: as §1
# Kdn(a2-3)Gal(b1-3)GalNAc = biological target: Kdn(a2-3)Gal(b1-3)GalNAc
# Method in brief: as §1
# Kdn(a2-3)Gal(b1-3)GlcNAc = biological target: Kdn(a2-3)Gal(b1-3)GlcNAc
# Method in brief: as §1
# Kdn(a2-3)Gal(b1-4)Glc = biological target: Kdn(a2-3)Gal(b1-4)Glc
# Method in brief: as §1
# Kdn(a2-3)Gal(b1-4)GlcNAc = biological target: Kdn(a2-3)Gal(b1-4)GlcNAc
# Method in brief: as §1
# [31] = biological target: Kdn(a2-3)Gal(b1-4)[Fuc(a1-3)]GlcNAc
# Method in brief: as §1
# Kdn(a2-6)Gal(b1-4)GlcNAc = biological target: Kdn(a2-6)Gal(b1-4)GlcNAc
# Method in brief: as §1
# [32] = biological target: Man(a1-2)Man(a1-2)Man(a1-3)Man
# Method in brief: as §1
# [33] = biological target: Man(a1-2)Man(a1-2)Man(a1-6)[Man(a1-3)]Man
# Method in brief: as §1
# Man(a1-2)Man(a1-3)Man = biological target: Man(a1-2)Man(a1-3)Man
# Method in brief: as §1
# [34] = biological target: Man(a1-2)Man(a1-3)[Man(a1-2)Man(a1-6)]Man
# Method in brief: as §1
binder,measurement,setting,value
B1,glycan array binding signal (z-score),GlcNAc(b1-3)Gal(b1-4)Glc,-0.18
same,glycan array binding signal (z-score),[1],-0.186
same,glycan array binding signal (z-score),[2],-0.09
same,glycan array binding signal (z-score),[3],-0.123
same,glycan array binding signal (z-score),[4],0.075
same,glycan array binding signal (z-score),[5],-0.172
same,glycan array binding signal (z-score),[6],0.066
same,glycan array binding signal (z-score),[7],0.013
same,glycan array binding signal (z-score),[8],0.099
same,glycan array binding signal (z-score),[9],0
same,glycan array binding signal (z-score),[10],-0.006
same,glycan array binding signal (z-score),[11],0.099
same,glycan array binding signal (z-score),[12],0.145
same,glycan array binding signal (z-score),[13],0.112
same,glycan array binding signal (z-score),[14],0.207
same,glycan array binding signal (z-score),[15],-0.168
same,glycan array binding signal (z-score),[16],-0.208
same,glycan array binding signal (z-score),[17],-0.174
same,glycan array binding signal (z-score),[18],-0.161
same,glycan array binding signal (z-score),[19],-0.149
same,glycan array binding signal (z-score),[20],-0.152
same,glycan array binding signal (z-score),GlcNAc(b1-3)GalNAc,-0.17
same,glycan array binding signal (z-score),GlcNAc(b1-3)Man,-0.141
same,glycan array binding signal (z-score),[21],-0.144
same,glycan array binding signal (z-score),[22],-0.226
same,glycan array binding signal (z-score),[23],-0.161
same,glycan array binding signal (z-score),[24],-0.208
same,glycan array binding signal (z-score),GlcNAc(b1-4)GlcNAc,-0.066
same,glycan array binding signal (z-score),[25],0.033
same,glycan array binding signal (z-score),[26],-0.032
same,glycan array binding signal (z-score),[27],-0.005
same,glycan array binding signal (z-score),[28],-0.195
same,glycan array binding signal (z-score),[29],-0.146
same,glycan array binding signal (z-score),GlcNAc(b1-6)GalNAc,-0.177
same,glycan array binding signal (z-score),[30],-0.147
same,glycan array binding signal (z-score),Kdn(a2-3)Gal(b1-3)GalNAc,-0.163
same,glycan array binding signal (z-score),Kdn(a2-3)Gal(b1-3)GlcNAc,-0.201
same,glycan array binding signal (z-score),Kdn(a2-3)Gal(b1-4)Glc,-0.131
same,glycan array binding signal (z-score),Kdn(a2-3)Gal(b1-4)GlcNAc,-0.166
same,glycan array binding signal (z-score),[31],-0.145
same,glycan array binding signal (z-score),Kdn(a2-6)Gal(b1-4)GlcNAc,-0.163
same,glycan array binding signal (z-score),[32],-0.124
same,glycan array binding signal (z-score),[33],-0.073
same,glycan array binding signal (z-score),Man(a1-2)Man(a1-3)Man,-0.167
same,glycan array binding signal (z-score),[34],-0.153
